Results: PubChem BioAssay AID1345083 (National Center for Advancing Translational Sciences (NCATS), 2018)
Values joined by “and” are separate entries in the source; they are usually repeats but may differ in a detail not shown here. Equal entries are not always repeated. About 6,200 (6.6%) of roughly 94,000 compounds were called active. The inconclusive results got no clear call from the source; some entries with a clear call stand among them for comparison. Calls follow the shape of the dose curve; as a rule, active = well fitted inhibition curve with a large enough effect; inconclusive = small, poorly fitted or top-dose-only effect; inactive = flat fitted curve, though single readings scatter. Potencies of inconclusive entries are doubtful fits and often do not repeat.

assay: Cytotoxic Profiling in HEK 293 Cell Line of Diverse Libraries Using Quantitative High-Throughput Screening; details: HEK 293 viability, ATP luminescence (CellTiter-Glo), 48-72 h; series mostly up to 115 µM; also: nearly all actives have a fitted effect of over 60% in size
Procedure, shortened: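 Cells seeded first (HEK 293, 250 cells/well), then compound added by pintool. Incubation ran 48 or 72 hr at 37 degree Celsius. CellTiter-Glo was added and luminescence imaged after 10 min at room temperature.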
Potency is read from the fitted curve at half-maximal effect; tags tell the direction and shape of the fitted curve.

Row | SMILES | Potency
1 | O=C([C@@H]1C[C@H](Oc2cccnc2)CN1C(=O)Cc1ccccc1)N1CCCC1 | inconclusive: 50.1 µM [inhibitor, partial curve, poor fit]
2 | COc1ccc(Nc2ccnc(N3CCCC(C(=O)NCCc4ccccc4F)C3)n2)cc1 (stereo not given) | active: 22.4 µM
3 | CC(=O)c1cccc(NC(=O)O[C@@H]2CO[C@H]3[C@@H]2OC[C@@H]3NC(=S)NC2CCCCC2)c1 | inconclusive: 79.4 µM [inhibitor, partial curve, poor fit]
4 | COc1ccc(-c2ccccc2C(=O)NC2CCC2)nn1 | inactive
5 | O=C(Nc1cccc2ccccc12)O[C@@H]1CO[C@H]2[C@@H]1OC[C@@H]2NS(=O)(=O)c1ccc2ccccc2c1 | inconclusive: 56.2 µM [inhibitor, partial curve, poor fit]
6 | COc1ccc(-c2nc(C(C)C)nc3c2CCN(C(=O)Nc2ccccc2)CC3)cc1 | inconclusive: 79.4 µM [inhibitor, partial curve, poor fit]
7 | COc1cccc(CN2CCC3(CC2)CC(c2cccnc2)=NO3)c1 | inactive and inconclusive: 112 µM [inhibitor, partial curve, poor fit]
8 | c1cc(-c2cc(-c3ccncc3)c3cncn3c2)c2cc[nH]c2c1 | active: 89.1 µM
9 | O=C(Cc1ccc(N(Cc2ccc(F)cc2)C(=O)c2ccco2)cc1)NCc1ccc(F)cc1 | active: 25.1 µM
10 | COc1cccc([S+](=O)([O-])N2CCC(N3CCNC3=O)CC2)c1 | inactive
11 | CC(C)(C)c1cc(C[C@H]2CNCC[C@H]2CC(=O)N2CCC(Cc3ccccc3)CC2)no1 | active: 22.4 µM
12 | COc1ccc(C(=O)N2CCc3nc(C(C)C)nc(-c4ccc(Cl)cc4)c3CC2)cc1 | inconclusive: 56.2 µM [inhibitor, partial curve, poor fit]
13 | O=C(c1ccccc1)N1CCC2(CC1)COc1ccccc1NC2=O | inconclusive: 126 µM [inhibitor, single point]
14 | CN1CCC(NC(=O)C(C)(C)Oc2nn(Cc3cccc(Cl)c3)c3ccccc23)CC1 | active: 39.8 µM
15 | COc1cccc(CN2CCOC3CCN(Cc4cccc(Cl)c4)CC3C2=O)c1 (stereo not given) | inconclusive: 112 µM [inhibitor, single point]
16 | O[C@@H]1C[C@@H](c2nc(Cc3ccc(F)cc3Cl)no2)N(Cc2cccs2)C1 | inconclusive: 112 µM [inhibitor, partial curve, poor fit]
17 | O=C1CCC2(C(=O)NCc3cc(F)ccc3F)CCCC=C2N1Cc1ccccc1 (stereo not given) | inconclusive: 89.1 µM [inhibitor, single point]
18 | Cc1ccc(OCc2nc(C3CN(C(=O)CCc4nc5ccccc5s4)C3)no2)cc1 | inconclusive: 56.2 µM [inhibitor, partial curve, poor fit]
19 | O=C(NCc1ccc(F)cc1)C1CCCCN1Cc1ccc(-c2cccs2)cc1 (stereo not given) | inconclusive: 31.6 µM [inhibitor, partial curve, poor fit]
20 | OC1(c2csc(CN3CCN(c4ccccn4)CC3)n2)CCN(C2CCCC2)CC1 | inactive

Row | SMILES | Potency
21 | O=C(Nc1ccc2ncnc(N3CCCCC3)c2c1)c1ccccc1 | inconclusive: 50.1 µM [inhibitor, partial curve, poor fit]
22 | COc1ccc2cc1Nc1ccc(cc1)C[C@H](NCc1ccc(C)o1)C(=O)N(C)[C@@H](C(=O)NCc1ccccc1)C2 | inconclusive: 39.8 µM [inhibitor, full curve]
23 | COCc1ccc2c(c1)c(OC(C)(C)C(=O)NC1CCC(O)CC1)nn2CCC(C)C (stereo not given) | inconclusive: 112 µM [inhibitor, partial curve]
24 | CCOC(=O)C1=C(C)N=C2SC=C(CC(=O)N(C)CC)N2C1c1cccc([N+](=O)[O-])c1 (stereo not given) | inconclusive: 31.6 µM [inhibitor, full curve, poor fit]
25 | CC(=O)N1CC2(Cc3ccccc31)CN(C(=O)Nc1ccc(Cl)cc1)C2 | inactive
26 | O=C(NCCc1ccc(Cl)cc1)c1ccc2nnc(-c3cc(F)ccc3F)n2c1 | inconclusive: 44.7 µM [inhibitor, partial curve, poor fit]
27 | COc1cccc(-c2ccc(C(=O)N3CCC(NC(=O)c4ccccc4F)CC3)cc2)c1 | inconclusive: 44.7 µM [inhibitor, partial curve, poor fit]
28 | CC1=C[C@@H](CNC(=O)c2cnccn2)[C@H](C(C)C)C[C@H]1Cc1nc2ccc(C)cc2[nH]1 | active: 31.6 µM
29 | CC(C)Cc1cnc(-c2cccnc2)[nH]1 | inactive
30 | O=C(Nc1ccc(-c2cccc(F)c2)cc1)C1CCCN(C(=O)c2ccncc2)C1 (stereo not given) | active: 14.1 µM
31 | COc1cc(OC)cc(C(=O)N[C@@H]2CN(c3ncccn3)C[C@H]2CO)c1 | inactive
32 | CC(C)NC(=O)N[C@H]1C[C@H]2C(=O)NC[C@@H](CCC(=O)NC3CC3)N2C1 | inactive
33 | Cc1ccc(OCC(=O)c2ccc3c(c2)N(CCCC(=O)N2CCOCC2)C(=O)CO3)c(Cl)c1 | inactive
34 | Cc1ccsc1C(=O)NCc1nnc2ccc(-c3ccc(Cl)cc3)nn12 | inconclusive: 79.4 µM [inhibitor, partial curve]
35 | O=C(NCCNC(=O)c1cccnc1)c1ccc(-c2cccc(C(F)(F)F)c2)cc1 | inconclusive: 39.8 µM [inhibitor, partial curve, poor fit]
36 | CC1=NS(=O)(=O)N(Cc2ccccc2)C=C1C(=O)OCc1nc(-c2ccc(C)cc2)no1 | inconclusive: 35.5 µM [inhibitor, full curve, poor fit]
37 | COc1ccc(C(=O)N2CC[C@H](c3nnc(-c4ccccc4OC)o3)C2)cc1OC | inconclusive: 112 µM [inhibitor, partial curve, poor fit]
38 | CCC1(O)CCC12CCN(C(=O)C1CCCC1)CC2 (stereo not given) | inconclusive: 89.1 µM [inhibitor, single point]
39 | CC1(COc2ccc3[nH]ccc3c2)COc2ccc(C(=O)N3CCOCC3)cc2N1 (stereo not given) | inconclusive: 100 µM [inhibitor, partial curve]
40 | CNC(=O)c1cc(C2CC2)nc2c1c(C1CCN(C(=O)Cc3ccccn3)CC1)nn2C | inactive
